# In the supplement of paper PMC3334620:
# Whole data set: some 33,000 sequences, median “E-score (-0.5 to 0.5)” near -0.036, cut for the highest 2% near 0.37. The list shows a part of the results.
# Molecular target: T1, Yer064c (UniProt P40041)
# T1 sequence: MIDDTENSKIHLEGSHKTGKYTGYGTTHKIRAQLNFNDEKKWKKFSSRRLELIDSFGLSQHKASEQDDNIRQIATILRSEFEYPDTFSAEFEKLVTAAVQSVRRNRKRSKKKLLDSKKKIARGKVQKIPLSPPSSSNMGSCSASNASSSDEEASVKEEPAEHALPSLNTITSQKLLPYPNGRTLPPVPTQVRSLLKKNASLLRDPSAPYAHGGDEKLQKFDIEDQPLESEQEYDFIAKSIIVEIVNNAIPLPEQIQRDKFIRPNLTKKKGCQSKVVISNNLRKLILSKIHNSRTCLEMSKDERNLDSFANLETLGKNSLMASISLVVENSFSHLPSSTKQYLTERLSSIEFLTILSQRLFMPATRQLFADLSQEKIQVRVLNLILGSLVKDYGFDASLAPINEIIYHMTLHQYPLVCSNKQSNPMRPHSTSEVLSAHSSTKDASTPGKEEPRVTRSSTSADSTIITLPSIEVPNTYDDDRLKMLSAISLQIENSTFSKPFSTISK
# Assay: PBM E-score (8-mer binding enrichment) (E-score (-0.5 to 0.5)); higher = stronger / more preferred TF binding; most listed sequences are background and not binding sites
# Details: protein concentration: 200 nM; construct: GST-full length
# Method in brief: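 Masliner-normalised scans of fluorescent anti-GST signal were the basis for scoring. That signal came from GST-tagged yeast transcription factors applied at about 100-200 nM to double-stranded universal all-10-mer Agilent arrays on fresh or once-stripped slides. Each ungapped eight-base word, pooled with its reverse complement, received an E-score from the Universal PBM Analysis Suite.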
row,Sequence,PBM E-score
1,ATCACGTA,0.137
2,GCCACACC,-0.2
3,ATTTGTAG,0.00901
4,GCGATCAC,-0.0271
5,AAAAATAT,0.0883
6,CCAACCTC,-0.23
7,GGCTCAAA,0.213
8,ACTCGCCC,0.0905
9,CTTGGCGA,-0.0294
10,AAGAGCTA,-0.228
11,CAAGGATG,-0.014
12,AGACCAAC,-0.139
13,GTTGCAAC,-0.034
14,CTACATAA,0.0056
15,CATAGGCC,-0.158
16,ACTATTAC,0.111
17,CCTGGAGC,-0.113
18,CTAAAGTC,0.279
19,TATAACCA,0.122
20,TAAGCGAA,-0.0314
21,AATCTTGC,0.122
22,ACATTTGA,0.157
23,ACGGCCGG,-0.182
24,AGCCATTA,0.252
25,GTCAGCAA,0.251

row,Sequence,PBM E-score
1,ACCATCGA,-0.0442
2,ACACGTTC,-0.271
3,TGACATCA,0.0345
4,AAGAAACC,0.0989
5,TAATTAGA,-0.0163
6,AATGCCGG,-0.219
7,TAACCGTA,-0.0427
8,GCTATTCA,0.124
9,GGACCCAA,-0.149
10,ATCCAGGG,-0.173
11,CGTCGCCA,-0.274
12,CTGCCTAC,-0.0918
13,AGTCCGGG,0.0365
14,GCCAGCTA,-0.118
15,GGCCGGAC,-0.145
16,CGGGTGAA,0.0246
17,CCCGCGCG,-0.085
18,GAGAGAAA,-0.02
19,GACTTTGC,0.0497
20,AGTATCTC,0.165
21,AAAACATA,0.0612
22,GACGGATC,-0.0775
23,AATACGTG,-0.0157
24,ATTGATTG,0.165
25,ATAAATTG,0.135

row,Sequence,PBM E-score
1,GCTTTAAC,-0.0805
2,ACGCTATG,-0.064
3,CTAGGATA,-0.0789
4,CGTGAACG,-0.187
5,CCATTCCC,-0.126
6,CGTTCACC,-0.284
7,AAAACGTA,-0.00988
8,AATAACCT,0.102
9,AGGCATAC,-0.217
10,ACATTCAA,0.0397
11,GAGTGTCC,-0.0363
12,CGGAATGC,-0.396
13,ACGTCACG,-0.289
14,AATGGCCC,-0.374
15,AGCTTACC,-0.0148
16,CCATCATA,-0.0232
17,GAGGTGAC,0.224
18,GAGACAAC,-0.036
19,AAAGCAGT,0.11
20,CAGACCTG,-0.105
21,CTTATCTC,-0.0792
22,AACGAGGG,-0.0732
23,ACTCAGAA,0.338
24,AGGTTAAT,0.171
25,GCTGTACC,-0.0973

row,Sequence,PBM E-score
1,CCGGGACA,-0.133
2,AAGGTGCG,-0.118
3,AGGATTAG,0.0974
4,CGCACGCC,-0.0831
5,ACTCTCTG,0.247
6,ATTTGTTC,0.11
7,GGTCGTAA,-0.0401
8,AACTCTTA,0.0866
9,GGCCCGAC,-0.188
10,CGCACCGC,-0.207
11,ATCGAGGA,0.0662
12,ATGTATTA,0.0655
13,GACATCGA,-0.0148
14,GTTACGGA,-0.0114
15,TACTCGCA,0.211
16,AAGCTACC,0.0356
17,ACACTCAA,0.155
18,ACCTGCCC,-0.188
19,AATGCCAA,-0.167
20,AAACAAGC,-0.214
21,AACGGTCC,-0.244
22,GCTATACC,-0.129
23,AGCACCTG,-0.12
24,CGCTCACC,-0.256
25,ATCAGCAA,-0.0245

row,Sequence,PBM E-score
1,AAAGACCC,-0.0176
2,ATGCTTGA,0.078
3,ATGCGCGA,0.0822
4,TCGATCCA,-0.1
5,ATCACAAG,0.194
6,ACTGGAGA,-0.0901
7,AGGTTTAC,-0.11
8,AGAGGACT,0.249
9,AAGTACAA,0.0912
10,CACGACAA,-0.0584
11,CTCCCCTC,-0.0464
12,GGGTATCA,-0.0346
13,ATCCGATA,-0.138
14,CTCTTTTC,-0.00184
15,CTGAGAAA,0.121
16,AAGATGCG,-0.207
17,CTCCCGGA,-0.119
18,GACGTGTA,0.0305
19,AACACGAA,0.142
20,GAAGGCTA,-0.0025
21,CTATGAAC,0.0923
22,AACACCAC,-0.0248
23,GCTGAAAA,-0.118
24,CGGATCCA,-0.0202
25,AGTAGTCA,0.478

row,Sequence,PBM E-score
1,AGAGCTCC,-0.0726
2,ACAAACGG,-0.0526
3,ATACAACA,0.068
4,GTAGGCTA,-0.0445
5,ACTCACTA,0.346
6,ATCGGCAG,-0.205
7,CTTTAGCC,0.176
8,GGCCCCTA,-0.227
9,CTGTGAAC,-0.0778
10,CGTTCGTC,-0.153
11,CATCGTGA,0.0376
12,ATAGTGGA,-0.137
13,ATCAATAC,0.0498
14,GAGATGCC,-0.212
15,GACAACGA,0.0915
16,CCCTTATC,-0.0684
17,TAGGTCGA,-0.024
18,ATGAAAAA,0.123
19,AAGGACGC,-0.117
20,ACCGGTCT,-0.345
21,AGTTTCAG,-0.0733
22,ACGGCTAC,-0.0869
23,CAGTTAAG,0.0885
24,CCGGACCC,-0.278
25,ACATTCGC,-0.206

row,Sequence,PBM E-score
1,AAGAGTAG,-0.0333
2,AAGCGCGT,-0.0964
3,CGTGAAGC,-0.26
4,TGAGGAAA,-0.0935
5,ACCAACGT,-0.145
6,AAGTGGGT,-0.0192
7,ATCAGGTA,0.114
8,AGCCTAAA,0.0683
9,CCCTGTCG,-0.232
10,AAGTGGAC,-0.112
11,ATAGTGAG,0.24
12,CACATGCA,0.111
13,AAGGGGAC,-0.0495
14,ACATGCGC,-0.0108
15,AATAAATT,0.129
16,TGCTATAA,-0.248
17,ACGCGCTC,0.12
18,CACCATGG,-0.078
19,GTAATCTA,0.119
20,ATCTACAA,0.0742
21,TGAAGTAA,0.0152
22,AAAAGATC,-0.0102
